Measured values as given in article PMC8155084.
Numbering of substitutions follows the chain as printed. No constants are given. Whether binding was seen depends on the method and setting. For some assays here: In cells and extracts the contact can be indirect. Some binding calls cover weakened binding; strength is not graded here. For some assays here: Tags and fused reporters may be left off the sequences shown. Each block holds one substance with its values, some of them ahead of it.

How the values were obtained:
[1] = biological target: human Flag-SUN1_(1-210) (human) (UniProt O94901); test: co-IP; Flag-SUN1_(1-210), Myc-SPDYA and CDK2 ectopically expressed in HEK293T cells, with or without CDK2; immunoprecipitation with anti-Flag beads, immunoblotting
[2] = biological target: T1, human Flag-SUN1_(1-210) W150A (human) (UniProt O94901); test: as above
T1 sequence: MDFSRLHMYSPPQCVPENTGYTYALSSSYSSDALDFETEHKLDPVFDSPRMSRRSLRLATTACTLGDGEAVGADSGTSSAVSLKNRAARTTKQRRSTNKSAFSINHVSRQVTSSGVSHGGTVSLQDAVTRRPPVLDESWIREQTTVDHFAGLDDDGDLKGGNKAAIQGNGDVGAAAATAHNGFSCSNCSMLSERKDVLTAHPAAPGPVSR

[3] = biological target: T2, human Flag-SUN1_(1-210) W150R (human) (UniProt O94901); test: as above
T2 sequence: T1 sequence with A150R

[4] = biological target: T3, human SUN1 W150A with a C-terminal GFP tag (human) (UniProt O94901); test: nuclear membrane recruitment (localization) assay, immunofluorescence; GFP-tagged SUN1 or SUN1_(136-155)–MAJIN^DB and Myc-tagged SPDYA co-expressed by lentiviral co-infection in U-2 OS cells; recruitment of SPDYA to the nuclear membrane
T3 sequence: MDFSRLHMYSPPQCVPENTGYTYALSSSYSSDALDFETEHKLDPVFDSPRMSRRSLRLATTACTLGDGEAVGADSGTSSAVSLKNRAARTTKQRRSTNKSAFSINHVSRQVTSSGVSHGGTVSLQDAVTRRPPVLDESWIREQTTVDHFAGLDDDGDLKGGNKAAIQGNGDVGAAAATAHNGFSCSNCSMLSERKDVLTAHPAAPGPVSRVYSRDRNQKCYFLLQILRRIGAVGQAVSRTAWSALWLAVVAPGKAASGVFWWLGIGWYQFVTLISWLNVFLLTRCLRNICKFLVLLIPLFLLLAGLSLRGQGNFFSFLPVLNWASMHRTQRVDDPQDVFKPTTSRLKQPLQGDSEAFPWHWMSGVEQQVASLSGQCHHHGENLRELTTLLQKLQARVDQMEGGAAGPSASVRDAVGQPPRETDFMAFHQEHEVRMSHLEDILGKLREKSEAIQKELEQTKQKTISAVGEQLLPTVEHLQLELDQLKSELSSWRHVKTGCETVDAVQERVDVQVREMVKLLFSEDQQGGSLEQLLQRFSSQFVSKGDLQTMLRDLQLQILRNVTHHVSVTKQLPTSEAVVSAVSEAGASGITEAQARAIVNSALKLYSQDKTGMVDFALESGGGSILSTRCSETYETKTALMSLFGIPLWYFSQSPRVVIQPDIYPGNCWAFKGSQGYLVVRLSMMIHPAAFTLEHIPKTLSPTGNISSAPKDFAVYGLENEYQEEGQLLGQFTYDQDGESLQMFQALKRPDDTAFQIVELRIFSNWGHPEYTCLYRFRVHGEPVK

[5] = biological target: T4, human SUN1 W150R with a C-terminal GFP tag (human) (UniProt O94901); test: as above
T4 sequence: T3 sequence with A150R

[6] = biological target: human SUN1 with a C-terminal GFP tag (human) (UniProt O94901); test: as above
[7] = biological target: LexA-SUN1 (residues 1–210), N-terminus / nucleoplasmic region of SUN1 (human) (UniProt O94901); test: two-hybrid; LexA-SUN1_(1-210) in pBTM116 with GAL4 activation domain fusions in pACT2, L40 yeast strain; β-galactosidase activity of the reporter gene measured

- binding [1]: binds
- binding [2]: no binding
- binding [3]: no binding
Substance: human Myc-SPDYA (HEK293T) (from UniProt Q5MJ70 1-313)

- binding [4]: no binding
- binding [5]: no binding
- binding [6]: binds
Substance: human SPDYA with an N-terminal Myc tag (U-2 OS) (from UniProt Q5MJ70 1-313)

- binding [6]: binds
Substance: SPDYA fragment (residues 61–213), extended Ringo domain, Myc-tagged (U-2 OS) (from UniProt Q5MJ70 61-213) (domain or fragment)

- binding [7]: binds
Substance: GAD-fused SPDYA (Speedy/RINGO A) (from UniProt Q5MJ70 1-313)
